Self-cleavage data for 56 variants are collected here from the RNAGym collection of RNA variant scans (doi:10.7554/elife.90254).

The source gives no read counts; variants with many changes may rest on few reads.

Sequences and labels used below:
B1: LINE1-mini (parent)
chain: GGCAGAGCUCAACACAGCGUGGCAAAGUGGCUGUGGCUAGACUGCC

In the data set the parent is B1. Nature of the data set: self-cleavage, relative activity (ratio to wild type); higher = more cleavage; in vitro, sequencing; the parent is a self-cleaving ribozyme.
Take GGCAGAGCUCAACACAGCGUGGCAAUGUAGCUGUGGCUAAACUGCC [A26U G29A G40A]: the self-cleavage was determined as 0.01.

Regarding GGCAGAGCUCAACACAGCGUGGCAAAAAGGCCGUGGCUAGACUGCC [G27A U28A U32C], the self-cleavage was found to be 0.08. In the case of GGCAGAGCUCAACACAGCGUGGCAAUGUGGGUGAGGCUAGACUGGG [A26U C31G U34A C45G C46G], the self-cleavage came out at 0.07. The value for GGCAGAGCUCAACACAGCGUGGCAAAAUGGCUGUGGCUAGGCCGCC [G27A A41G U43C] was 0.03; that for GGCAGAGCUCAACACAGCGUGGCAAUGUUGCUGUGGCUAGACUGUC [A26U G29U C45U] was 2.07. The value for GGCAGAGCUCAACACAGCGUGGCAAAAUGGCUCCGGCGAGACUGCC [G27A G33C U34C U38G] was 0.08. On to GGCAGAGCUCAACACAGCGUGGCAAAAUGGCUGUGACUAAACUACC [G27A G36A G40A G44A], for which the self-cleavage was 0.13. To GGCAGAGCUCAACACAGCGUGGCAAAAUGGCUGUGGCUAGAGAGCC [G27A C42G U43A] belongs 0.06; to GGCAGAGCUCAACACAGCGUGGCAAGGUGUCAGUGGCUAGACUGCC [A26G G30U U32A], 0.08; to GGCAGAGCUCAACACAGCGUGGCAAUGUGUGUGUGGCUAGACUGCC [A26U G30U C31G], 0.03.

In the case of GGCAGAGCUCAACACAGCGUGGCAAUGUGGCUUUUGCUAGACUGCC [A26U G33U G35U], the self-cleavage was 0.04. As to GGCAGAGCUCAACACAGCGUGGCAAACUGGCUAGGGAUAGAAUGCC [G27C G33A U34G C37A C42A], the self-cleavage is 0.12.

Consider GGCAGAGCUCAACACAGCGUGGCAAAAUCGCUGUGGCUCUACUGCC [G27A G29C A39C G40U], for which the self-cleavage turned out to be 0.02. The value for GGCAGAGCUCAACACAGCGUGGCAAAAUGGCUGUGGCUAGACAGCA [G27A U43A C46A] was 0; that for GGCAGAGCUCAACACAGCGUGGCAAGGUGUCUGUGGCUAAACUGCC [A26G G30U G40A] was 0.17. To GGCAGAGCUCAACACAGCGUGGCAAUGUGAGUGAGGCUAGACUGCC [A26U G30A C31G U34A] belongs 0.01.

Turning to GGCAGAGCUCAACACAGCGUGGCAAAAUUGCUGUGGCUCGUCUGCC [G27A G29U A39C A41U], the self-cleavage was 0.05.

Consider GGCAGAGCUCAACACAGCGUGGCAAAAAGGUUGUGGCUAGACUGCC [G27A U28A C31U], for which the self-cleavage is 0.26.

For GGCAGAGCUCAACACAGCGUGGCAAACUGUCUGUGGCGAGCCUGCC [G27C G30U U38G A41C], the self-cleavage was 0.01. The value for GGCAGAGCUCAACACAGCGUGGCAAAAUGGCUGUAGCGAGACUGCC [G27A G35A U38G] was 0.03; that for GGCAGAGCUCAACACAGCGUGGCAAAAUGGCCGUGGCUAGAUUGCC [G27A U32C C42U] was 0.04. The value for GGCAGAGCUCAACACAGCGUGGCAAUGUGGGUGUGGCUGGACUGCU [A26U C31G A39G C46U] was 0.01; that for GGCAGAGCUCAACACAGCGUGGCAAUGUGGCCGAGGCUAGACUGCC [A26U U32C U34A] was 0.05; that for GGCAGAGCUCAACACAGCGUGGCAAAAUAGCUGGGGCUAUUCAUCC [G27A G29A U34G G40U A41U U43A G44U] was 0.01. For GGCAGAGCUCAACACAGCGUGGCAAGGUGGCAGUGGCGAGACUGCC [A26G U32A U38G], the self-cleavage is 0.01. On to GGCAGAGCUCAACACAGCGUGGCAAUGUGGCUGUGGCAAGACUGGC [A26U U38A C45G], for which the self-cleavage amounted to 0.32. To GGCAGAGCUCAACACAGCGUGGCAAUGCGGCCGUGACUAGACUCCC [A26U U28C U32C G36A G44C] belongs 0; to GGCAGAGCUCAACACAGCGUGGCAAGGUGGCUCUGUCUAGACUGCC [A26G G33C G36U], 0.02; to GGCAGAGCUCAACACAGCGUGGCAAAAUUGUUGUGGCUAGAGUGCC [G27A G29U C31U C42G], 0.03. To GGCAGAGCUCAACACAGCGUGGCAAAAUGGCGGUGGCUAGACUGAC [G27A U32G C45A] belongs 0.09; to GGCAGAGCUCAACACAGCGUGGCAAAAGGUCUGUGGCUAGACUGCC [G27A U28G G30U], 1.72; to GGCAGAGCUCAACACAGCGUGGCAAUGUAGCUGUCUCUAGACUGCC [A26U G29A G35C G36U], 0.09. In the case of GGCAGAGCUCAACACAGCGUGGCAAACUGGCUGUGGUUCGACUGCA [G27C C37U A39C C46A], the self-cleavage amounted to 0.26. To GGCAGAGCUCAACACAGCGUGGCAAACUUGCUGGGGCUAGACUGCC [G27C G29U U34G] belongs 0.49.

Take GGCAGAGCUCAACACAGCGUGGCAAUGUGGCUGUGGCUCCACUGCC [A26U A39C G40C]: the self-cleavage was 0.19. Turning to GGCAGAGCUCAACACAGCGUGGCAAAAUUGCUGGGGCUAGACUGGC [G27A G29U U34G C45G], the self-cleavage came out at 0.07. As to GGCAGAGCUCAACACAGCGUGGCAAAAUGGCUGUGCCUGGACUGCC [G27A G36C A39G], the self-cleavage amounted to 0.05. To GGCAGAGCUCAACACAGCGUGGCAAAAUCGCUUUGGCUAGACAGCG [G27A G29C G33U U43A C46G] belongs 0.12; to GGCAGAGCUCAACACAGCGUGGCAAAACGGCUGUGGCUAGACUGCU [G27A U28C C46U], 0.27; to GGCAGAGCUCAACACAGCGUGGCAAAAUGACUGUGUCUAGACAGCC [G27A G30A G36U U43A], 0.61. To GGCAGAGCUCAACACAGCGUGGCAAUGUGGCUGUGCCUAGACUUCC [A26U G36C G44U] belongs 0.06; to GGCAGAGCUCAACACAGCGUGGCAAACUGGCUGUGGCUAGACUUCA [G27C G44U C46A], 0.03; to GGCAGAGCUCAACACAGCGUGGCAAUGUGGAUGUGGCUAGACUCCC [A26U C31A G44C], 0.03. As to GGCAGAGCUCAACACAGCGUGGCAAAAUGUCUGUGGCUAGACUCCC [G27A G30U G44C], the self-cleavage is 0.52. Turning to GGCAGAGCUCAACACAGCGUGGCAAACUGACUGUCGCUAGACUGCC [G27C G30A G35C], the self-cleavage worked out at 0.13.

Regarding GGCAGAGCUCAACACAGCGUGGCAAUGUGGCUGUGGCUAUACUGAC [A26U G40U C45A], the self-cleavage is 0.16. To GGCAGAGCUCAACACAGCGUGGCAAACUGUCUGUGGCUAGAAUGCC [G27C G30U C42A] belongs 0.08. GGCAGAGCUCAACACAGCGUGGCAAUGUGGCUGUGGCCAGCCUGCC [A26U U38C A41C]: the self-cleavage turned out to be 0.04. The value for GGCAGAGCUCAACACAGCGUGGCAAUGUGGCUGUGGCCAGGCUGCC [A26U U38C A41G] was 0.38; that for GGCAGAGCUCAACACAGCGUGGCAAAAUGGCUGUGGCUGGACUGCU [G27A A39G C46U] was 0; that for GGCAGAGCUCAACACAGCGUGGCAAACUAGCUGAGGCUAGACUGCC [G27C G29A U34A] was 0.07. The value for GGCAGAGCUCAACACAGCGUGGCAAACUGGCUGUGACUAUUCUGCC [G27C G36A G40U A41U] was 0.5. To GGCAGAGCUCAACACAGCGUGGCAAACUGCCUGGGGCUAGACUGCC [G27C G30C U34G] belongs 0.11; to GGCAGAGCUCAACACAGCGUGGCAAAAUGGCUAUGGCUAGACUGCA [G27A G33A C46A], 0.04; to GGCAGAGCUCAACACAGCGUGGCAAUGUGUCUUUGGCUAGACUGCC [A26U G30U G33U], 0.09. In the case of GGCAGAGCUCAACACAGCGUGGCAAUGUGGCUGUGGCUACACUACC [A26U G40C G44A], the self-cleavage turned out to be 0.06.
